Results on 84 molecules are retold here after PubChem BioAssay AID1346428 (National Center for Advancing Translational Sciences (NCATS), 2018).

Where “and” joins values, the source holds several entries; their conditions need not be identical. Identical values can stand only once. In all, about 48,000 compounds went through this assay and about 1,200 (2.5%) were called active. About 2% were inconclusive and are not listed.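 Rule for the calls: active = activation of at least 60% and not above a set upper limit (about 1 call in 100 departs from these limits); inconclusive = activation of 40% to 60%, or above that upper limit; inactive = activation under 40%.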 Some of the results follow.

UniProt O75388, sequence (O75388 whole entry, looked up): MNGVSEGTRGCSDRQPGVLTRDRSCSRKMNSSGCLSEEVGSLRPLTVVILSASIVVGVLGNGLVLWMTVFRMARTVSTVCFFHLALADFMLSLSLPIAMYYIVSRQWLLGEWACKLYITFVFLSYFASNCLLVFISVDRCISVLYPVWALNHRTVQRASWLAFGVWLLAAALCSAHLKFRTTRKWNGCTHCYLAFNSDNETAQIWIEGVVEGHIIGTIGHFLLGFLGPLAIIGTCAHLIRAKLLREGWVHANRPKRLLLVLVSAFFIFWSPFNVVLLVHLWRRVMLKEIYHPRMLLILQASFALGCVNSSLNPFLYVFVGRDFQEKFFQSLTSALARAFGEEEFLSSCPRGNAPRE

The assay concerns the target Probable G-protein coupled receptor 32 (Homo sapiens) (UniProt O75388). Kind of assay: qHTS for Agonists of Human Resolvin D1 Receptor DRV1. Note: 0% is about no effect. The note with it: CHO-K1 GPR32 beta-arrestin PathHunter luminescence, 90 min; at 76.9 µM; hits give high values; zero percent set by DMSO-only wells. A digest of the protocol:
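Luminescent readout of beta-Gal complementation quantifies ligand-induced beta-arrestin association with GPR32 in CHO-K1 cells; 90 min compound incubation at 37 °C, detection 1 h at room temperature.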
Background: qHTS replaces the single test concentration by a dilution series.
As for `Cc1ccc(-c2nnc(Nc3ccc(C(=O)N(C)C)cc3)c3ccccc23)cc1S(=O)(=O)N(C)C`, the activation is inactive: 15.9%.
Consider `Cc1ccc(NC(=O)c2ccc3c(O)c(S(=O)(=O)c4ccccc4)c(=O)[nH]c3c2)cc1Cl`, for which the activation was inactive: 0.0522%.
For `O=C(Nc1nnc(S(=O)(=O)N2CCCCC2)s1)c1ccccc1Br`, the activation is inactive: 19.7%.
Take `CCN(C(=O)CN1C(=O)COc2ccc(S(=O)(=O)N3CCOCC3)cc21)c1ccc(OC)cc1`: the activation is inactive: -18.7%.
Then `O=C(COc1ccc(Cl)cc1)OCc1cc(=O)n2nc(C3CC3)sc2n1`, with inactive: -7.61%; and `CC(C)(C)CC(=O)NCC(c1ccc2c(c1)OCO2)N1CCOCC1` (centres undefined), with inactive: -8.04%.
Under `O=C(Nc1cccc(F)c1)c1ccc2c(c1)N(Cc1ccccc1)C(=O)c1ccccc1S2(=O)=O` stands inactive: -14.1%; under `Cc1ccc(OCC(=O)Nc2ccccc2OCc2cc(=O)n3ccccc3n2)cc1C`, inactive: -10.7%; under `Cc1cccc(NC(c2ccccc2F)c2ccc3ccc(C)nc3c2O)n1` (centres undefined), inactive: -22.3%.
Regarding `COc1ccc(-c2nc3ccccc3s2)cc1NC(=O)c1ccc(F)cc1`, the activation was inactive: 1.5%.
Take `CN1[C@@H]2CC[C@H]1CC(NC(=O)n1c(=O)[nH]c3ccccc31)C2` (some centres undefined): the activation was inactive: -6.51%.
In the case of `COC(=O)c1ccccc1NC(=O)C1CCN(C(=O)N2CC(C)Oc3ccccc32)CC1` (centres undefined), the activation was inactive: -7.73%.
As to `COc1ccc(C(=O)NCC(c2ccc(N(C)C)cc2)N2CCc3ccccc32)cc1OC` (centres undefined), the activation is inactive: -34.7%.
For `N[C@@H](C(=O)N[C@@H]1C(=O)N2C(C(=O)O)=C(Cl)CS[C@H]12)c1ccccc1`, the activation was inactive: -44.6%.
Take `CC(C)(C)c1ccc(C(=O)Nc2onc3c2CCCC3)cc1`: the activation is active: 88.2%.
Then `O=C(Nc1ncc([N+](=O)[O-])s1)c1cccs1`, with inactive: -39.7%.
In the case of `COc1ccc(OC)c(S(=O)(=O)Nc2cccc(-c3ccc(N4CCCCC4)nn3)c2)c1`, the activation was inactive: 9.71%.
Take `Cc1ccc(C)c(N2CCN(C(=O)CSCc3ccccc3Cl)CC2)c1`: the activation was inactive: -31.2%.
As for `COc1cccc(NC(=O)CC2Nc3cc(C)c(C)cc3NC2=O)c1` (centres undefined), the activation was inactive: -24.2%.
For the molecule `COc1ccc(C(=O)NCc2ccc(OCCN(C)C)cc2)cc1OC`, the activation was inactive: -3.16%.
As for `Cc1cccc(NC(=O)CCS(=O)(=O)c2cc(Br)cc3c2N(C(=O)C2CC2)CC3)c1`, the activation was inactive: -12.9%.
`Cc1ccc(CN(Cc2ccco2)C(=O)COc2ccc(C)c(C)c2)cc1`: the activation is inactive: -13.2%.
With `CC(C)(C)c1ccc(C(=O)NCC(c2ccc(Cl)cc2)N2CCOCC2)cc1` (centres undefined), the activation was inactive: -22.2%.
As for `CCc1ccc(S(=O)(=O)Nc2cccc(-c3ccc(N4CCOCC4)nn3)c2)cc1`, the activation was inactive: 35.3%.
Regarding `Cc1ccc(CNC(=O)CC2Oc3ccc(Cl)cc3NC2=O)cc1` (centres undefined), the activation was inactive: -6.34%.
Under `CC(=O)c1cccc(NC(=O)CSc2nc3ccccc3nc2Cc2ccc(F)cc2)c1` stands inactive: -11.7%; under `CC(=O)Nc1ccccc1-c1nc2ccccc2n(CC(=O)Nc2cccc(C(F)(F)F)c2)c1=O`, inactive: -26.3%; under `Cc1ccc(CO)cc1Nc1ncnc2onc(-c3ccc(F)cc3)c12`, inactive: -7.07%.
Consider `CCS(=O)(=O)N1CC(=O)N(c2ccc(Cl)cc2)C(C)(C(=O)NC2CCCCC2)C1` (centres undefined), for which the activation is inactive: -2.16%.
On to `CCOc1cccc2cc(S(=O)(=O)c3ccccc3F)c(=O)oc12`, for which the activation is inactive: 5.22%.
For the molecule `CCN(CC)C(=O)CSc1nc(-c2ccc(C)cc2)nc2c1Cc1c(CO)cnc(C)c1O2`, the activation is inactive: 5.88%.
Take `COc1cccc(-c2nc(SCC(=O)NC3CCCC3)c(-c3ccc(C)cc3)[nH]2)c1`: the activation was inactive: -25%.
Consider `CC1=C(c2ccc(C(C)C)cc2)S(=O)(=O)N=C1N1CCC(C(=O)NCCc2ccco2)CC1`, for which the activation was active: 63.9%.
Consider `CC1=C(C(=O)Nc2ccc(F)cc2F)C2(CCN(C(C)C)CC2)OC1=O`, for which the activation was inactive: 1.5%.
Then `CCCOc1cccc(C(=O)Nc2cc(-c3ccccc3)no2)c1`, with inactive: -4.81%; and `CCc1ccc(NC(=O)CN(c2cc(C)cc(C)c2)S(=O)(=O)c2c(C)[nH]c(=O)[nH]c2=O)cc1`, with active: 76.5%.
Under `COc1ccc(N2CC(NC(=O)c3ccc(S(=O)(=O)N4CCCCC4)cc3)CC2=O)cc1` (centres undefined) stands inactive: -11.8%; under `Cc1ccc(C(=O)Nc2c(C)nc3ccccn3c2=O)cc1C`, inactive: -2.94%; under `CCOc1ccc(CNC(=O)c2ccc3c(c2)nc2n3CCOC2)cc1OC`, inactive: -0.301%.
For `CCc1cccc(NC(=O)C(Cc2ccccc2)n2cccc2)c1` (centres undefined), the activation was inactive: 14.9%.
Regarding `CC(C)NC[C@H](O)c1ccc(O)c(O)c1`, the activation was inactive: 10.5% and inactive: -8.43%.
Consider `CCOC(=O)c1ccc(-n2c(CCC(=O)O)ccc2-c2ccccc2)cc1`, for which the activation is inactive: -30%.
As for `CC(=O)N1CCc2cc(Br)cc(S(=O)(=O)N3CCC(C(=O)Nc4ccc(C(C)C)cc4)CC3)c21`, the activation is inactive: 6.47%.
Under `Cc1ccccc1OCC(=O)NCC(c1ccc(Cl)cc1)N1CCCCC1` (centres undefined) stands inactive: -28.3%.
As for `Cn1ncc2c(N3CCN(c4ccccc4F)CC3)ncnc21`, the activation is inactive: 26.4%.
Then `COc1ccc(C)cc1NC(=O)Nc1cccc(OCc2cc(=O)n3ccc(C)cc3n2)c1`, with inactive: -8.8%; and `CCOc1ccc(/C=C/c2nc(C#N)c(NC(C)c3ccccc3)o2)cc1` (centres undefined), with inactive: -17%; and `CCCCc1ccc(NC(=O)c2ccc3c(c2)CCN3S(=O)(=O)CC)cc1`, with inactive: 39.5%.
Consider `COc1cccc(C(=O)N2c3ncnn3C3(CCCCC3)[C@@H]3CCCC[C@@H]32)c1`, for which the activation was inactive: -15.4%.
Regarding `COc1ccc(N2CCN(S(=O)(=O)c3ccc(-c4ccno4)cc3OC)CC2)cc1`, the activation is inactive: -1.94%.
Under `CCc1cccc(C)c1NC(=O)CN1C(=O)C2(SCC(=O)N2c2cccc(F)c2)c2ccccc21` (centres undefined) stands inactive: -5.47%; under `CN(Cc1ccccc1)S(=O)(=O)c1ccc(NC(=O)c2cc(=O)c3ccccc3o2)cc1`, inactive: 0.441%.
As for `Cc1ccccc1NC(=O)Cn1c(=O)n(CCc2ccccc2)c(=O)c2ccccc21`, the activation was inactive: -32.7%.
With `Cc1cccc(N2CCN(S(=O)(=O)c3cc(C(=O)Nc4ccc(Oc5ccccc5)cc4)ccc3F)CC2)c1C`, the activation was inactive: -0.999%.
Take `O=c1oc2ccccc2c(N2CCN(c3ccc(F)cc3)CC2)c1CN1CCCC1`: the activation is inactive: -17.6%.
As to `O=C(Cn1ncc2c([nH]c3ccccc32)c1=O)NCCCN1CCN(c2ccccc2)CC1`, the activation was inactive: -5.58%.
Then `COc1ccc(OC)c(Nc2sc(C(=O)c3ccccc3)c(N)c2S(=O)(=O)c2ccccc2)c1`, with inactive: -24.9%; and `COc1ccc(C(=O)COC(=O)c2cc(-c3cccs3)nc3ccccc23)cc1`, with inactive: -10.6%.
Regarding `CC(C(=O)Nc1ccc(OC(F)(F)F)cc1)N1Cc2ccccc2C1=O` (centres undefined), the activation is inactive: -7.17%.
Regarding `Cc1oc(-c2ccccc2F)nc1CN1CCC(C(=O)NCCc2ccccc2)CC1`, the activation is inactive: 7.9%.
In the case of `CCCCn1cc(S(=O)(=O)c2cc(C)ccc2C)c(=O)c2cc(F)c(F)cc21`, the activation is inactive: -9.24%.
Take `CCc1nn2c(=O)cc(COC(=O)c3ccccc3NC(=O)COc3ccc(C)c(C)c3)nc2s1`: the activation is inactive: -5.74%.
Then `COc1ccc(CNC(=O)C(C)n2nc(C)c3c(C)n(-c4ccccc4)nc3c2=O)c(OC)c1` (centres undefined), with inactive: -2.74%; and `CCOC(=O)c1cccc(NC(=O)c2oc3c(c2C)-c2nn(CC)cc2CC3)c1`, with inactive: -5.28%.
Take `Cc1c(Cl)cccc1-n1ncc(C(=O)NC2CCCCC2)c1C1CCN(C(=O)OC(C)(C)C)CC1`: the activation was inactive: -30.8%.
Take `COc1ccc(Br)cc1[C@@H]1Nc2ccc(C(=O)O)cc2[C@@H]2C=CC[C@@H]21`: the activation was inactive: 16.8%.
Under `CCOc1ccc(CCNC(=O)CSc2nnnn2-c2ccccc2)cc1OCC` stands inactive: 3.92%; under `Cc1ccc(CNC(=O)Cc2csc3ccccc23)cc1`, active: 85.4%.
Then `COc1ccccc1CNC(=O)C(C)n1c(=O)cc(-c2ccccc2)c2c(C)nn(C)c21` (centres undefined), with inactive: -3.69%; and `CCOC(=O)Cn1c(=O)oc2cc(S(=O)(=O)N3CCN(c4cccc(C)c4)C(C)C3)ccc21` (centres undefined), with inactive: -15%; and `CC(=O)Nc1ccc2nc3c(=O)n(C)c(=O)n(C)c3nc2c1C`, with inactive: 4.89%.
For `Cc1nc2cccnc2n1-c1cccc(C(=O)NCCN(C)C)c1`, the activation was inactive: 0.679%.
`COc1ccc(-c2cc(C(F)F)nn2-c2ccc(S(N)(=O)=O)cc2)cc1F`: the activation is inactive: 1.57%.
On to `CC(C)c1nn2c(=O)cc(COC(=O)c3cccs3)nc2s1`, for which the activation was inactive: -23.2%.
Take `CCc1ccc(CNC(=O)c2cnc3sc(N4CCOCC4)nn3c2=O)cc1`: the activation is inactive: 4.68%.
Then `N#Cc1nc(-c2ccc(COc3ccccc3)o2)oc1N1CCN(c2ccccc2)CC1`, with inactive: 1.78%.
With `O=C1CCSC2(C(=O)N(Cc3ccc(F)cc3)c3ccccc32)N1c1ccc(Cl)cc1` (centres undefined), the activation was inactive: -22.5%.
As for `COc1ccc(Cl)cc1NC(=O)N1CCN(Cc2cc(=O)n3nc(-c4ccccc4)sc3n2)CC1`, the activation was inactive: 9.76%.
With `CCOC(=O)c1cnn(-c2ccc(C(=O)Nc3ccc(C(C)=O)cc3)cc2)c1N`, the activation is inactive: -0.471%.
As for `CCCS(=O)(=O)Nc1cccc(-c2cn3ccc(C)cc3n2)c1`, the activation was inactive: 41.1%.
With `CCOc1ccc2c(c1)c(=O)c(S(=O)(=O)c1ccc(F)cc1)cn2CC(=O)Nc1ccccc1C`, the activation was inactive: 5.56%.
For the molecule `NC1=NC(c2cccc(Cl)c2)n2c(nc3ccccc32)N1` (centres undefined), the activation was inactive: 5.23%.
As to `COCCN(Cc1ccco1)C(=O)c1cc2c(=O)[nH]c3ccc(C)cc3c2s1`, the activation is inactive: 3.68%.
Turning to `COc1cc2cc(CNc3ccccc3)c(=O)n(CC(=O)Nc3ccc(C)c(Cl)c3)c2cc1OC`, the activation is inactive: -14.3%.
